From ChEMBL document CHEMBL1201862, “PubChem BioAssay data set” (2004)

Test system: NCI-H322M
Test: inhibition of tumour cell growth, NCI panel, 48 h

SMILES | GI50
Cc1cccc(N2C(=O)C3c4[nH]c5ccc(C)cc5c4C4CCC(C(C)(C)C)CC4C3C2=O)c1 (configuration not stated) | inactive: 36.8 µM
N#CCCN(CCC#N)c1ccc(/C=C2\N=C(c3ccccc3)N(NC(N)=S)C2=O)cc1 | inactive: > 100 µM
OC12c3ccccc3C1CCCCCCCCCC21OCCO1 (configuration not stated) | inactive: > 100 µM
CC1=C(C)C(=O)c2c(cc3ccc4ccccc4n23)C1=O | inactive: > 100 µM
CN(C)c1n/c(=N/c2ccc(/N=c3\nc(N(C)C)ss3)cc2)ss1 | inactive: 61.1 µM
C=CCCCCC1CCC2CCC(CCCCC=C)N12 (configuration not stated) | inactive: 17.3 µM
Nc1ncnc2c1ncn2C1OC(C(=O)OCCO)C(O)C1O (configuration not stated) | inactive: > 100 µM
C/C(=N\NC(=S)NC(CCC(=O)O)C(=O)O)c1ccccn1 (configuration not stated) | inactive: > 100 µM
Cc1ccc(-n2cnc3c(N/N=C4\SCC(=O)N4c4ccccc4)ncnc32)cc1 | inactive: 12.8 µM
CC(=O)Oc1ccn2nc(C)c(Br)c2c1 | inactive: > 100 µM
O=C(O)c1cc(C(=O)C(=O)c2cc(C(=O)O)c(O)c3ccccc23)c2ccccc2c1O | inactive: > 100 µM
CC(=O)Nc1ccc(NC(=O)CC(=O)Nc2ccc(NC(C)=O)cc2)cc1 | inactive: > 100 µM
COC(=O)CCC(NC(=O)C(CCC(=O)OC)NC(=O)C(CCC(=O)OC)NC(=O)C(CCC(=O)OC)NC(=O)C(CCC(=O)OC)NC(=O)C(Cc1ccc([N+](=O)[O-])cc1)NC(=O)C(CCC(=O)OC)NC(=O)C(CCC(=O)OC)NC(=O)C(CCC(=O)OC)NC(=O)C(CCC(=O)OC)NC(=O)C(CCC(=O)OC)NC(C)=O)C(N)=O (configuration not stated) (Ac-E(OMe)E(OMe)E(OMe)E(OMe)E(OMe)[Phe(4-NO2)]E(OMe)E(OMe)E(OMe)E(OMe)E(OMe)-NH2; configuration not given here) | inactive: > 100 µM
CCc1ccccc1NC(=O)C1=C(C)NC(C)=C(C(=O)Nc2ccccc2CC)C1c1ccc2c(c1)OCO2 | inactive: 39.9 µM
CN1CCN(C(=S)N(C(=O)c2ccco2)c2ccccc2)CC1 | inactive: > 100 µM
O=C(O)c1cc(=O)c2c(OCC(O)COc3cccc4oc(C(=O)O)cc(=O)c34)cccc2o1 | inactive: > 100 µM
CN(C)CCCNc1c2ccccc2nc2cccc([N+](=O)[O-])c12 | active: 0.00254 µM
CC(=O)OCC1OC(OCCCCCCO)C(OC(C)=O)C(OC(C)=O)C1OC(C)=O (configuration not stated) | inactive: > 100 µM
FC(F)(F)c1ccc2c(c1)nc(Cc1ccc(Cl)c(Cl)c1)n2CC1CCCN2CCCCC12 (configuration not stated) | inactive: 13.6 µM
O=C(NCC(=O)N1CCCC1C(=O)OC(=O)C1CCCN1C(=O)CNC(=O)OCc1ccccc1)OCc1ccccc1 (configuration not stated) | inactive: 23.9 µM
Nc1nc(SCC(=O)O)nc(O)c1N | inactive: > 100 µM
Cc1ccc(-n2c(O)c(C#N)c3[nH]nc(N)c3c2=O)cc1 | inactive: > 100 µM

SMILES | GI50
S=C1OC2C3C4CC5C3C(O1)C1C5C4C21 (configuration not stated) | inactive: > 100 µM
Cn1c(-c2cccs2)cc(-c2ccsc2)c1-c1cccs1 | inactive: 87.7 µM
CC1(C)/C(=N\Nc2ccc([N+](=O)[O-])cc2[N+](=O)[O-])C2CCC1C2 (configuration not stated) | inactive: 8.83 µM
O=C1CC(C(O)CO)CC(=O)N1 (configuration not stated) | inactive: > 100 µM
C[P+]1(Cc2ccccc2)CCCC1 | inactive: > 100 µM
COc1ccccc1/N=C1\SCCN1C(=S)Nc1ccc(S(=O)(=O)/N=C/N(C)C)cc1 | inactive: > 100 µM
O=C1[C@H](O)[C@@H]2C(O)O[C@H]3[C@@H]2N1C[C@H]3[Si](c1ccccc1)(c1ccccc1)c1ccccc1 (some centres not stated) | inactive: > 100 µM
Fc1cc(-c2cc(-c3ccc4c(c3)OCO4)n[nH]2)c(Cl)cc1Cl | inactive: 2.23 µM
CC(=O)/C(=C\c1ccccc1)C(=O)Nc1ccccc1 | inactive: > 100 µM
O=C(Nc1c(C(F)(F)F)cc(-c2ccccc2)[nH]c1=O)N1CCOCC1 | inactive: > 100 µM
CCCCCCCCCc1c(Cl)nc(Cl)nc1Cl | inactive: 17.7 µM
O=C(C#Cc1cnc(O)nc1O)c1ccccc1 | inactive: 15.3 µM
COC(=O)C1=C(C(=O)OC)C2OC1C1C2C2(C)C(C)=C(C)C1(C)[S+]2[O-] (configuration not stated) | inactive: 21.5 µM
c1ccc(COc2ccc(C[P+](c3ccccc3)(c3ccccc3)c3ccccc3)cc2)cc1 | inactive: 2.05 µM
COc1cccc(N2C(=O)C3C4C=C5c6ccccc6N(c6ccccc6)C5(C3C2=O)[C@H]2C(=O)N(c3cccc(OC)c3)C(=O)[C@@H]42)c1 (some centres not stated) | inactive: > 100 µM
CC(C)(C)c1cc(OCc2nnc3sc(S)nn23)c(Cl)cc1OCc1nnc2sc(S)nn12 | inactive: 37.9 µM
C/C(=C(/C)c1ccc(O)cc1)c1ccc(O)cc1 [DIMETHYLSTILBESTROL] | inactive: 87.3 µM
C=C1C(=O)[C@@]23CC[C@H]4[C@@](C)(CCC[C@@]4(C)C(=O)OC)[C@@H]2CC[C@]1(O)C3 | inactive: 1.74 µM
Cc1cc(/N=C/c2c(CO)cnc(C)c2O)c(/N=C/c2c(CO)cnc(C)c2O)cc1C.[Zn+2] | inactive: > 100 µM
COC(=O)C1=C(C[S+]([O-])c2ccccc2[N+](=O)[O-])ON(C)C1c1ccccc1 (configuration not stated) | inactive: > 100 µM
NC(CCCNc1cccc(O)c1)C(=O)O (configuration not stated) | inactive: > 100 µM
CC(=O)OCCn1c(Cc2ccc(Cl)cc2)nn(C(C)=O)c1=O | inactive: > 100 µM

SMILES | GI50
C/C=C/C1(C)/C(=N\O)C(C)(CCC)C(=O)N1O (configuration not stated) | inactive: > 100 µM
Clc1ccc(-c2nc(-c3ccc(Cl)cc3)[s+]s2)cc1 | inactive: 52.1 µM
COc1cc2ccccc2c2cc([N+](=O)[O-])oc12 | inactive: 1.48 µM
Cc1ccccc1OC(C)C(=O)NN1C(=O)CC(=O)NC1=S (configuration not stated) | inactive: 89.1 µM
Nc1ccc(Cn2ccc3c4c(N)nc(N)nc4ccc32)cc1 | active: 0.0101 µM
CC(C)=CCC[C@@H](C)C1=C(Nc2ccccc2F)C(=O)C(C)=C(O)C1=O | inactive: 4.72 µM
COC(=O)C1=C(C)N(NC(=O)c2cccc(Cl)c2)C(C)(O)C12CCOC2=O (configuration not stated) | inactive: > 100 µM
O=C(O)c1c[nH]c2c(=O)[nH]cnc12 | inactive: > 100 µM
CN(C(=O)C1=CCCCCC1)c1ccccc1I | inactive: 39.4 µM
CCCCC[C@H]1CC=CC(=O)O1 | inactive: 9.12 µM
COc1cc(C2c3cc4c(cc3OC(N3CCCCC3)C2C)OCO4)cc(OC)c1OC (configuration not stated) | inactive: 5.37 µM
CCOC(=O)C1=C(C)OC(=O)[C@@]2(OC)C=C(Cl)[C@@]12C | inactive: > 100 µM
C[C@@H]1C(O)CC[C@H](C)C12CC=CC2=O (some centres not stated) | inactive: 68.1 µM
COC(=O)C1CC(C(=O)OC)c2nc3cc(C)c(C)cc3nc21 (configuration not stated) | inactive: > 100 µM
CC12CCC(CC(=O)/C1=C(/Br)I)C2(C)C (configuration not stated) | inactive: 18.2 µM
CC(NC(=O)C(C)(C)NC(=O)C(CC(=O)OCc1ccccc1)NC(=O)OCc1ccccc1)C(N)=O (configuration not stated) (Cbz-Asp(OBn)-[Aib]-Ala-NH2; configuration not given here) | inactive: > 100 µM
COc1ccccc1-c1cc(O)c2cc3c(cc2n1)OCO3 | inactive: 53.7 µM
O=C1O/C(=C\C=C\CO)C=C1/C=C/CO [LISSOCLINOLIDE] | inactive: 31.2 µM
O=C(CCN1CCCCC1CCO)Nc1ccc2c(c1)C(=O)c1ccc(NC(=O)CCN3CCCCC3CCO)cc1C2=O (configuration not stated) | inactive: 3.85 µM
COc1ccc(CC2C3=C(CCN2C(=O)C2CCC2)CC2(CC3)OCCO2)cc1O (configuration not stated) | inactive: 26.9 µM
CCCCCCCCCCCC[C@@H](O)[C@H]1CCC([C@H](O)CCCCC(=O)CCCCCCCC2=C[C@H](C)OC2=O)O1 (some centres not stated) | inactive: > 14.3 µM
CC1=N[C@@](C)(C2CC3C=CC2C3=O)COC1=O (some centres not stated) | inactive: > 100 µM

SMILES | GI50
COc1cc(/C=C2\C(=O)N(c3cccc(Cl)c3)C(c3ccccc3)S2(=O)=O)cc(OC)c1OC (configuration not stated) | inactive: > 100 µM
CC(=O)OCC(OC(C)=O)C1C[C@H]2O[C@@H]3[C@H](C[C@H]2O1)O[C@@]1(C[C@@H]3C)C[C@H](C)[C@@H]2O[C@]3(C[C@@H]2O1)C[C@H]1O[C@H]2[C@H](C)[C@H]4OC(=O)CC5CC[C@H]6OC7[C@H]8O[C@]9(CC[C@H]%10CC(O)(CO)[C@H](CC[C@H]%11C[C@@H](C)C(O)(CO)C(C[C@@H]4O[C@H]2C[C@H]1O3)O%11)O%10)CC8O[C@@H]7[C@@H](O9)[C@H]6O5 (some centres not stated) | active: 0.00635 µM
CCCCCCCCCCCCCS(=O)(=O)O | inactive: > 100 µM
CC1=CC(=O)/C(=C/n2c(=S)[nH]c3ccccc32)C(=O)O1 | inactive: > 100 µM
COc1ccc(NC(=O)CC(=O)n2nc(C)c(/N=N/c3ccc(C)c(C)c3)c2C)cc1 | inactive: 60.5 µM
COc1ccc2c(C=O)c3n(c(=O)c2c1OC)CCc1cc2c(cc1-3)OCO2 | inactive: > 100 µM
CN(C)c1ccc(NN=C2SC(=N\c3ccccc3)/C(=N/c3ccccc3)S2)cc1 | inactive: > 100 µM
CCOC(=O)NC(Nc1cccc(F)c1)(C(F)(F)F)C(F)(F)F | inactive: > 100 µM
O=[N+]([O-])/C(Cl)=C(\Nc1ccccc1)C(Cl)=C(Cl)Cl | inactive: 39.9 µM
C=Cc1cncc(C#N)c1CCc1c(C#N)cncc1C=C | inactive: > 10 µM
CC(C(=O)NCCNC(=O)CCC(=O)N(C)O)C(=O)NCCNC(=O)CCC(=O)N(C)O | inactive: > 100 µM
CCOc1c(Br)cc(Br)cc1C=C(C#N)C#N | inactive: > 10 µM
O=C(O)CCSC(=O)Nc1cccc(F)c1 | inactive: > 100 µM
C/C(=N\Nc1nc2cc(F)ccc2s1)c1ccccn1 | active: 0.0548 µM
COCC1N=C(c2cc(OC)c(OC)c(OC)c2-c2cc3c(cc2[C@H](C)O)OCO3)O[C@H]1c1ccccc1 (some centres not stated) | inactive: > 100 µM
CO[C@H]1SC[C@H](OC(C)=O)[C@H](OC(C)=O)[C@H]1OC(C)=O | inactive: > 100 µM
CC12OC3(C(O)C1O)C(C(=O)O[C@H]3CO[Si](C)(C)C(C)(C)C)C2S(=O)(=O)c1ccccc1 (some centres not stated) | inactive: 79.8 µM
CC(O)C(C(=O)O)N(CC1(O)OCC(O)C(O)C1O)N=O (configuration not stated) | inactive: > 100 µM
N#CC1=C(N)N2C(=O)/C(=C/c3ccccc3O)N=C2S1 | inactive: 98.4 µM
OCC(O)COc1ccc(Br)cc1 (configuration not stated) | inactive: > 100 µM
NC(=S)NN=Cc1ccccc1OCc1cccc(COc2ccccc2C=NNC(N)=S)n1 | inactive: 9.66 µM

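Five compound concentrations were applied to cells in 96-well plates for 48 hours; endpoints were derived by simple linear interpolation of the resulting dose-response curve. GI50 marks 50% less growth.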 Calls of active or inactive are those of the source. No stated cut-off is given here; in the data, active = GI50 up to about 1.1 µM and inactive = higher. Square brackets hold non-standard residues; d marks the D form. Peptide text beside a SMILES is read from it. * marks the point of attachment. Phe(4-NO2) = N[CH](Cc1ccc([N+](=O)[O-])cc1)C(=O)O; Cbz = O=C(OCc1ccccc1)*; Aib = CC(C)(N)C(=O)O; OBn = c1ccc(CO*)cc1
